Experimental data from ChEMBL document CHEMBL4888484, “Replenishing the malaria drug discovery pipeline: Screening and hit evaluation of the MMV Hit Generation Library 1 (HGL1) against asexual blood stage Plasmodium falciparum ,using a nano luciferase reporter read-out” (2022).
The campaign covered roughly 150,000 compounds. About 540 (0.36%) showed an effect of 50% or more. The list shows a part of the results.

Tested on: Plasmodium falciparum
Experiment: Primary screen in NF54 nanoGlo assay, in single point, at 2uM, 72h; a lower Z score goes with more inhibition
Assay type: functional, Erythrocyte
Settings: timepoint 72 hour

Compound | % Inhibition | Z score
CN(C)C[C@H]1CN(CCc2ccccn2)CCO1 | -9% | 0.94
Cc1cc2cc(CNC3(CO)CCOCC3)oc2cc1C | -5% | 0.9
CC[C@H](C)CN1CCC(O)(c2ncnn2C)CC1 | -11% | 1.1
COc1cccc(CC(=O)Nc2cc(S(=O)(=O)N3CCOCC3)ccc2N2CCOCC2)c1 | -3% | 0.46
Cn1cnc2c1CCN(c1nnc(-c3ccccc3)s1)C2 | 14% | -2.64
Cc1ccccc1S(=O)(=O)N1CCC(N2CC(F)(F)C[C@H]2CN(C)C)CC1 | -4% | 0.68
CCOc1nnc(CN(CCC(N)=O)c2ccc(F)cc2)s1 | -8% | 0.83
CN1CCCC[C@@H]1CC(=O)N1CCN(c2ccc3nccn3n2)CC1 | -8% | 1.72
CCOc1ccnc(N2CC[C@H](C(C)(C)O)C2)n1 | 2% | -0.38
O=C1C[C@H](Nc2cc(-c3ccccc3)nc3ncnn23)CN1C1CC1 | -13% | 1.53
O=S(=O)(CCNc1ncccc1F)NCC1CCC1 | -8% | 0.84
O=S1(=O)CC[C@H](NS(=O)(=O)c2ccccc2-c2ccno2)C1 | 9% | -1.21
Cc1ccc(C(=O)OCCc2cn3c(n2)CCCC3)c(F)c1 | -5% | 0.75
COCc1noc(C(C)N(C)CC2CCCCO2)n1 (stereo unspecified) | -12% | 2.12
CN(C)c1nc(N2CCC(CCC(=O)N3CCOCC3)CC2)ncc1F | 3% | -0.46
O=C(N[C@@]1(CO)CCOC1)c1nn(-c2ccc(Cl)cc2F)c2c1CCC2 | -18% | 2.37
O=C(NCCO)Nc1ccc(OC(F)(F)F)cc1Br | -13% | 1.66
Cc1nc(C(=O)N2CC[C@@H]3OCc4cccc(c4)Oc4cccc(c4)CCC(=O)N(C)CC(=O)N[C@@H]3C2)cs1 | 8% | -1.12
CCC(CC)NC(=O)C1CC(=O)CC1C(=O)NC(CC)CC (stereo unspecified) | -6% | 0.96
Cc1ccc2oc(N3CCN(C(=O)NCCc4cnn(C)c4)CC3)nc2c1 | 8% | -1.6
CCc1nc(C)sc1CNC1CCN(c2ccc(C)cc2)CC1 | -14% | 1.44
CC(=O)c1nnc(-c2nc3ccccc3s2)n1Nc1ccc(S(N)(=O)=O)cc1 | 10% | -1.75

Compound | % Inhibition | Z score
CC(C)c1cc(C(=O)Nc2cccnc2)no1 | 2% | -0.2
COC(=O)[C@@](C)(NCC(=O)N(CCc1ccccc1)Cc1ccccc1)C1CC1 | -11% | 2.15
COc1ccc(CCNC(=O)c2c(-c3ccccc3)c(-c3ccccc3)n[nH]c2=O)cc1OC | -4% | 0.68
O=C(CN1CCN2CCC[C@H]2C1)Nc1nc(-c2ccc(Br)cc2)cs1 | -43% | 5.02
Cc1nc(C)n(CNC(=O)c2ccc(Br)cc2)n1 | 5% | -0.61
C[C@@H](CN1CCCCC1)c1ncnn1CC(C)(C)O | -17% | 2.3
O=C(Nc1ccc(C2OC(=O)N(Cc3ccc(F)cc3)C2C(=O)Nc2cccc(F)c2)cc1)c1ccc(F)cc1 (stereo unspecified) | -16% | 1.58
Cc1cc(C(=O)NC2(C#N)CCCC2)cnn1 | -5% | 0.87
Cc1cnc(-c2nc([C@H]3CCC(=O)NC3)no2)c(C)c1 | 6% | -1.15
COc1ccc(-c2cc3n(n2)[C@H](C(=O)Nc2ccccc2)CC(=O)N3)cc1 | 28% | -3.22
COc1cc(C(=O)NCCc2csc(N)n2)ccn1 | -4% | 0.45
Cc1cc(C(=O)Nc2ccc(Cl)cn2)on1 | 6% | -0.86
COCCNC(=O)CNC(=O)C1CC1c1cccc2ccccc12 (stereo unspecified) | 32% | -3.66
Nc1cc(Cl)c(C(F)(F)F)cc1N | 32% | -4.18
CS(=O)(=O)N1CC[C@H]2[C@H](CCC(=O)N2CCc2ccccc2)C1 | -11% | 1.74
CCC(C)C(NC(=O)c1ccc(Cl)cc1)C(=O)N1CCN(c2cnccn2)CC1 (stereo unspecified) | 2% | -0.35
Cc1ccc(N2CCCN(Cc3c(F)cccc3F)C2=O)c(NC(=O)Nc2ccccc2)c1 | -10% | 1.44
Cc1ccc(NC(C)C)c(C(=O)N(C)C)c1 | -6% | 0.89
COc1ccc(C(=O)O[C@H](COc2ccc(Cl)cc2)CN2CCCC2)cc1 | 7% | -1.13
COc1cc(Cl)c(S(=O)(=O)N(C)Cc2nnc[nH]2)cc1OC | -6% | 0.96
Cc1cnc(N(C)C[C@H](C)C#N)nc1C | -2% | 0.22
